# Measurements: the supplement of paper PMC10338343
# ± gives the standard deviation. Only a part is listed here, and it is no random draw.
# Test system: MIWI (PIWIL1) piRISC loaded with L1MC piRNA (30 nt)
# Experiment: pre-steady-state target cleavage rate (min^-1); MIWI and MILI are mouse PIWI proteins and EfPiwi is from a freshwater sponge; tags in brackets are library labels; higher = faster piRNA-guided slicing of the target
# Details: guide: L1MC piRNA 5'p-UAACUAAAUACUAUGCAAGCUGUAGGUCCU; auxiliary factor: 500 nM mouse GTSF1
# Outline: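 The pre-steady-state cleavage rate was obtained by Cleave-'n-Seq with a burst-and-steady-state fit. A transcribed, DNA-blocked target RNA library (0.1 nM) was mixed with 1 nM active affinity-purified piRISC carrying one synthetic guide, with or without 500 nM GTSF1 partner protein, in HEPES–potassium acetate buffer at 33 °C for 0–8 or 0–960 min. Uncleaved targets were sequenced and normalised to depth and to weakly complementary targets, with three trials pooled and k3 capped at 0.0001 min^-1.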
row,Sequence,pre-steady-state target cleavage rate
1,UGGACCUACAGCUACCAUAGUAUUUAGAAA,0.0193 ± 0.0039
2,UCCACCUACAGCUUCGAUAGUAUUUAGUUA,0.571 ± 0.033
3,UCCUGGAACAGGAAGCAUAGUAUUUAGUUA,0.0934 ± 0.016
4,UCCUGGAUGAGGUUGCAUAGUAUAUAGUUA,0.0442 ± 0.01
5,UCCUGGAUGAGCUUGGAUAGUAUUUAGAAA,0.0178 ± 0.0058
6,UCCACCUACAGGUUGCAUAGUAUUUAGAAA,0.455 ± 0.056
7,UCCUGGAUGUCGACGCAUAGUAUUUAGUUA,0.00699 ± 0.003
8,UCCUGGUACAGCUUGCAUAGUAAAUUCAAA,0.00975 ± 0.0053
9,UCCUCCUACAGCUUGCAUAGUAUUUUCAUA,0.261 ± 0.034
10,UCGACCUACAGCUUGCAUAGUAUAAACAAA,0.362 ± 0.051
11,UCCUCCUACAGGUUGCAUAGUAUUUUCAAA,0.139 ± 0.025
12,UCCACCUACAGCUUGCAUAGAAUUUUCAAA,0.199 ± 0.039
13,UCCUGGAUCAGGAUGCAUAGUAUUUAGUAA,0.0111 ± 0.0026
14,UCCUGGAACACCUUGCAUAGUAUUUUCAAA,0.101 ± 0.025
15,UCCUGGUACAGCAAGCAUAGUAUUUUCAAA,0.0796 ± 0.022
16,UCCUGGAUCAGCUUGCAUAGUAUUAACAAA,0.252 ± 0.044
17,UCCUGGAUGUCGUCGCAUAGUAUUUAGUUA,0.0192 ± 0.0034
18,UCCUGGAUCACGAUGCAUAGUAUUUAGUUA,0.022 ± 0.0053
19,UCCUGGAUGAGCAUGCAUAGUAUUUAGAAA,0.0642 ± 0.014
20,UCCACCUACAGCUUGCAUAGUAAAAAGAAA,0.102 ± 0.028

row,Sequence,pre-steady-state target cleavage rate
1,UCCUGGAUGUCGUUGCAUAGUUUUUAGAUA,< 0.0001
2,UCCUCCUACAGGAUGCAUAGUAUUUUCAAA,0.252 ± 0.045
3,UCCUGGAUGAGGUUGCAUAGAAUUUAGUUA,0.0149 ± 0.0068
4,UCGACCUACAGCUUCCAUAGUUUUUAGUUA,0.0298 ± 0.011
5,UCCUGGAUGUCGAACGUAUGAAUUUACUUA,< 0.0001
6,UCCUGGAUGAGCUAGGAUAGUAUUUAGUUA,0.157 ± 0.023
7,UCCUCCUACAGCUUGCAUACAUUUUAGUUA,0.011 ± 0.0057
8,UCGACCUACAGCUUGCAUAGUAUAUACAAA,0.434 ± 0.069
9,UCCUCCUACAGCUUGCUUAGUAUUUACAAA,0.218 ± 0.035
10,UCCACCUACAGCUUCGAUAGUAUUUAGUAA,0.236 ± 0.031
11,UCCACCUACAGCUUGCAAUAGUAUUUAGUUA,0.166 ± 0.035
12,UCCUCCUACAGCUUGCAUAGUAUAAACAAA,0.329 ± 0.056
13,UCGACCUACAGCUUGCAUAGUAAAAACAAA,0.194 ± 0.043
14,UCCUGCUACAGCUUGCAUAGUAUUUAUUA,0.195 ± 0.023
15,AGGACCUACAGCUUGCUAAGUAUUUAGAAA,0.186 ± 0.047
16,UCGACCUACAGCUUGCAUAGUAUUUGUUA,0.505 ± 0.042
17,UCCUGGAUGAGCUUGAUAGUAUUUAGUUA,0.02 ± 0.0052
18,UCCUGCUACAGCUUGCAUGAGUAUUUAGUUA,0.00499 ± 0.004
19,AGGACCUACAGCUUGCAUAGUAAAUAGAAA,0.439 ± 0.094
20,UCCUCCUAGUCCUUGCAUAGUAUUUAGAAA,0.138 ± 0.032
